Measured values: PubChem BioAssay AID686979 (National Center for Advancing Translational Sciences (NCATS), 2013)
“And” between values parts separate entries of the source, which are not always exact repeats. Identical values can stand only once. In all, about 420,000 compounds went through this assay and about 50,000 (12%) were called active. Inconclusive means that the source gave no clear call. Such entries were picked first, then a sample of the others. Calls come from the whole dose curve; as a rule, active = well fitted inhibition curve with a large enough effect; inconclusive = small, poorly fitted or top-dose-only effect; inactive = flat fitted curve, though single readings scatter. A potency beside an inconclusive call is a rough fit, not a confirmed value.

Assay: qHTS for Inhibitors of human tyrosyl-DNA phosphodiesterase 1 (TDP1): qHTS in cells in presence of CPT; note: nearly all actives have a fitted effect of over 55% in size
Settings: chicken DT40 Tdp1-/-;hTDP1 cells + 20 nM CPT, ATP luminescence, 48 h; activity change, negative = growth inhibition: at 46.2 µM (top of the series) unless noted
Summary of the method: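 Chicken DT40 Tdp1-/- cells stably complemented with human TDP1 were seeded at 400 cells/well in medium containing 20 nM camptothecin, exposed to pin-transferred compounds, and grown at 37 °C for at least 48 hr. Viability was read as ATP luminescence.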
% is set by controls: 0 for no effect and ±100 for the full control effect; potency is the fitted concentration of half-maximal effect; tags give direction and shape of the fitted curve.

| Compound | Potency | activity change, negative = growth inhibition |
| --- | --- | --- |
| Cc1ccc2c(C)c(C(=O)N3CCN(c4ncccn4)CC3)oc2c1C | active: 20.6 µM |  |
| COc1ccc(-c2cc3cc(OC)c(OC)cc3cn2)cc1 | inconclusive: 25.9 µM [inhibitor, single point] |  |
| COc1ccc(-c2cc(=O)c3c(O)c(OC)c(OC)c(OC)c3o2)cc1 | inactive and inconclusive: 8.2 µM [inhibitor, partial curve] |  |
| COCCCNC(=O)/C(C#N)=C/c1c(N2CCCCCC2)nc2ccccn2c1=O | inactive |  |
| OC(COc1ccc2ccccc2c1)Cn1cncn1 (stereo not drawn) | inactive |  |
| CNc1nc(C)nc(N/N=C/c2ccccc2)n1 | inactive |  |
| CC(C)(C)c1ccc(C(=O)NNc2ncccc2-n2cccc2)cc1 | active: 13 µM |  |
| Cc1ccc2nc(C)cc(SCC(=O)N/N=C/c3ccco3)c2c1 | inactive |  |
| COc1ccc(-c2nnc(SCC(=O)Nc3c(C)cccc3C)nc2-c2ccc(OC)cc2)cc1 | inconclusive: 25.9 µM [inhibitor, single point] |  |
| CC1(C)CCCC(C)(C)N1CC(O)COCCOc1ccc(Br)cc1 (stereo not drawn) | inconclusive: 29.1 µM [inhibitor, single point] |  |
| O=C(Cn1c(=O)oc2ccccc21)Nc1ccccc1C(F)(F)F | inconclusive: 23.1 µM [inhibitor, single point] |  |
| CCOC(=O)c1c(NC(=O)c2ccc(S(=O)(=O)N(C)CC3CCCO3)cc2)sc2c1CCN(C)C2 (stereo not drawn) | inconclusive: 20.6 µM [inhibitor, single point] |  |
| CC1CCCCC1NC(=O)NC(=O)CCl (stereo not drawn) | active: 2.91 µM |  |
| O=C(NCC1CCCN1S(=O)(=O)c1cccs1)C(=O)Nc1ccccc1Cl (stereo not drawn) | inconclusive: 23.1 µM [inhibitor, single point] |  |
| O=C(c1ccc(CS(=O)Cc2ccccc2Cl)o1)N1CCN(c2ccccc2)CC1 (stereo not drawn) | inconclusive: 29.1 µM [inhibitor, single point] |  |
| CC(C)c1ccc(OCCCN2CCCC2)cc1 | inconclusive: 29.1 µM [inhibitor, single point] |  |
| NC1(C(=O)O)CC1 | inconclusive: 25.9 µM [inhibitor, single point] |  |
| COc1ccc(N2CC(C(=O)N3CCC4(CC3)CC(=O)c3ccccc3O4)CC2=O)cc1 (stereo not drawn) | inconclusive: 16.4 µM [inhibitor, single point] |  |
| CC(CCc1ccccc1)NC(=O)Cn1ncc2c3ccccc3n(Cc3ccccc3)c2c1=O (stereo not drawn) | inconclusive: 1.64 µM [inhibitor, full curve, poor fit] |  |
| COc1cccc(CN2CC(C(=O)N3CCOCC3)CCC2=O)c1 (stereo not drawn) | inactive |  |
| CC(C)c1nccn1S(=O)(=O)c1cccc([N+](=O)[O-])c1 | inactive |  |
| O=C(C1=C(c2ccccc2)C(=O)c2ccccc2C1=O)c1ccccc1 | active: 2.06 µM |  |
| CCc1ccccc1NC(=O)CCC(=O)N1CCSc2ccccc21 | inconclusive: 25.9 µM [inhibitor, single point] |  |

| Compound | Potency | activity change, negative = growth inhibition |
| --- | --- | --- |
| Cc1c(C(=O)C(=O)N2CC=C(c3ccccc3)CC2)c2ccccc2n1C | active: 2.91 µM |  |
| COc1ccc(C(=O)N/N=C(\Cc2ncc[nH]2)c2ccccc2)cc1 | active: 5.17 µM |  |
| Nc1cc2c(cc1Cl)-c1ccc([N+](=O)[O-])cc1C2=NO | active: 8.2 µM |  |
| COC(=O)CCCC1=CC2=C(c3ccccc3)C(=O)C(C)(OC(=O)C3CCCC3)C(=O)C2=CN1Cc1ccco1 (stereo not drawn) | inactive |  |
| CCCC(=O)N1c2ccccc2-c2nnc(SC)nc2OC1c1sccc1C (stereo not drawn) | inconclusive: 29.1 µM [inhibitor, single point] |  |
| COCCNC(=O)C1(C)CCCN(Cc2cc(C(F)(F)F)ccc2Cl)C1 (stereo not drawn) | inconclusive: 29.1 µM [inhibitor, single point] |  |
| COc1ccc(CCn2c(C)c(C(C)=O)c3cc(OC(=O)c4ccco4)ccc32)cc1OC | inconclusive: 29.1 µM [inhibitor, single point] |  |
| CCOc1ccc2c(c1)C(=O)C(=O)N2CC1COc2ccccc2O1 (stereo not drawn) | active: 1.16 µM |  |
| COc1cc([C@@H]2c3cc4c(cc3C(OC3OC5COC(C)OC5C(O)C3O)C3COC(=O)[C@@H]32)OCO4)cc(OC)c1O (stereo partly drawn) | active: 0.188 µM |  |
| COc1nc2ccccc2nc1N1CCN(Cc2ccc3c(c2)OCO3)CC1 | inconclusive: 14.6 µM [inhibitor, partial curve, poor fit] |  |
| O=C(CN(c1ccc(F)cc1)S(=O)(=O)c1ccccc1)NC1CCCCCC1 |  | inconclusive: -8.7% [inhibitor] |
| COc1cc2c(cc1OC)C(C)N(C(=O)Cn1ncc3c1-c1cc(C)ccc1OC3)CC2 (stereo not drawn) | inconclusive: 23.1 µM [inhibitor, single point] |  |
| COc1ccccc1C/C(N)=N/OC(=O)/C=C/c1ccccc1 | inconclusive: 29.1 µM [inhibitor, single point] |  |
| Cc1ccc(NC(=O)c2cnccn2)cc1S(=O)(=O)N1CCCCCC1 | inconclusive: 14.6 µM [inhibitor, partial curve, poor fit] |  |
| CN(C)c1ccc(P(=O)(COc2ccc([N+](=O)[O-])cc2)c2ccc(N(C)C)cc2)cc1 | inconclusive: 29.1 µM [inhibitor, partial curve, poor fit] |  |
| CN(C)S(=O)(=O)c1cccc(C(=O)N(Cc2ccc(F)cc2)Cc2ccco2)c1 | inconclusive: 29.1 µM [inhibitor, single point] |  |
| O=C(Cc1ccccc1)Nc1nnc(-c2ccccc2)o1 | inconclusive: 16.4 µM [inhibitor, single point] |  |
| COc1cc(C(=O)N2CCCC(C)(C(=O)NS(=O)(=O)C3CC3)C2)cc(OC)c1OC (stereo not drawn) | active: 1.64 µM |  |
| COc1ccc(-n2c(Cc3cccn3C)nnc2SCC(=O)Nc2cc(C)cc(C)c2)cc1 | inactive |  |
| CCN(CC(=O)Nc1ccc(OC)cc1)CC(=O)Nc1ccc(Br)cc1F |  | inconclusive: -35.2% [inhibitor] |
| COC(=O)c1ccc2nc(-c3ccc(C)cc3)c(Cc3ccccc3OC)n2c1 | inconclusive: 1.46 µM [inhibitor, full curve, poor fit] |  |
| CC(Oc1ccccc1)C(=O)Nc1c(C(=O)Nc2cccc(F)c2)oc2ccccc12 (stereo not drawn) | inconclusive: 29.1 µM [inhibitor, single point] |  |
| Cc1ccc(C)c(N2CCN(S(=O)(=O)c3cc(C(=O)Nc4ccccc4C(F)(F)F)ccc3F)CC2)c1 | active: 11.6 µM |  |

| Compound | Potency | activity change, negative = growth inhibition |
| --- | --- | --- |
| O=C(Cc1cccc(F)c1)N1CCOCC1 | inconclusive: 18.4 µM [inhibitor, partial curve] |  |
| Cc1ccc(C)c(S(=O)(=O)NCc2ccc(C(=O)N3CCN(c4ccccc4)CC3)cc2)c1 | inconclusive: 20.6 µM [inhibitor, single point] |  |
| CCOC(=O)c1cc2sccc2n1CC(=O)c1ccc2c(c1)OCCO2 | active: 14.6 µM |  |
| O=C(Nc1nnc(-c2ccccc2)s1)c1cc(S(=O)(=O)N2CCOCC2)c(Cl)cc1Cl | inactive |  |
| CCCN(C(=O)Cc1ccc(S(=O)(=O)N2CCOCC2)s1)c1c(N)n(Cc2ccccc2)c(=O)[nH]c1=O | inactive |  |
| CN(C)c1ccc(CNC(=O)Cn2c(-c3cccs3)cc3cc(Cl)ccc32)cc1 | inconclusive: 29.1 µM [inhibitor, single point] |  |
| COc1ccc(/C(C)=N/NC(=S)NCc2ccco2)cc1 | active: 2.91 µM |  |
| COc1ccccc1NC(=O)Cn1c(C)cc(=O)c2cccc(OC)c21 | active: 2.91 µM |  |
| CC(SC(C)C(=O)NN=Cc1c[nH]c2ccccc12)C(=O)NN=Cc1c[nH]c2ccccc12 (stereo not drawn) | inconclusive: 18.4 µM [inhibitor, single point] |  |
| COc1ccccc1-c1nc(SCC(=O)Nc2ccccc2F)n[nH]1 | inconclusive: 23.1 µM [inhibitor, partial curve] |  |
| COC(=O)c1[nH]c2ccc(C)cc2c1NC(=O)Nc1ccc(OC)cc1 | inactive |  |
| Cc1noc(C)c1-c1ccc2ncnc(NCc3cccs3)c2c1 | active: 11.6 µM |  |
| CCOc1ccccc1N1CCN(S(=O)(=O)c2cccs2)CC1 | inconclusive: 29.1 µM [inhibitor, single point] |  |
| C=C(C)CSc1cc(C)nc2c(-c3ccccc3)c(C)nn12 | inconclusive: 29.1 µM [inhibitor, single point] |  |
| COc1cc(C#N)ccc1OCC(=O)c1ccc2c(c1)OCCO2 |  | inconclusive: -33.8% [inhibitor] |
| COc1ccccc1NC(=O)N1CCN(c2nnc(C)c3c(C)n(-c4ccccc4)nc23)CC1 | inconclusive: 29.1 µM [inhibitor, single point] |  |
| CN(Cc1ccc(Cl)cc1Cl)C(=O)c1cccc(S(=O)(=O)NCc2ccccc2)c1 | inconclusive: 23.1 µM [inhibitor, single point] |  |
| COc1ccc(C2CC(=O)C3=C(C2)Nc2ncnn2C3c2ccccc2C)c(OC)c1 (stereo not drawn) | inconclusive: 32.6 µM [inhibitor, single point] |  |
| COc1cc(O)c(C(CC(=O)N2CCCC(C)C2)c2ccc3c(c2)OCO3)c(OC)c1 (stereo not drawn) | inconclusive: 29.1 µM [inhibitor, single point] |  |
| CC1=C(c2ccc(C)c(C)c2)S(=O)(=O)N=C1N1CCC(C(=O)NCc2ccc(N(C)C)cc2)CC1 | inconclusive: 29.1 µM [inhibitor, single point] |  |
| O=C1N(Cc2cccnc2)C[C@@H]2C[C@@H](c3ccc(C(F)(F)F)cc3)N3CCC[C@@]123 | inconclusive: 29.1 µM [inhibitor, single point] |  |
| O=C(NCc1ccc(F)cc1)C(c1ccccc1)N(C(=O)c1csnn1)c1ccccc1 (stereo not drawn) | inconclusive: 14.6 µM [inhibitor, single point] |  |
